Assay results reported in PubChem BioAssay AID360 (National Center for Advancing Translational Sciences (NCATS), 2006).
In all, about 48,000 compounds went through this assay and about 550 (1.1%) were called active. Inconclusive means that the source gave no clear call. Such entries were picked first, then a sample of the others. No stated cut-off is given here; in the data, active means potency below about 15 µM; inconclusive means mostly about 16 µM to 33 µM; inactive means weaker than that. Where the call is inconclusive, the potency comes from a doubtful curve fit.

Molecular target: Lysosomal acid glucosylceramidase (Homo sapiens) (UniProt P04062)
Assay: Glucocerebrosidase;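 further: the screen sought inhibitors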
Settings: purified enzyme, resorufin glucoside fluorescence (screen aimed at inhibitors), 20 min
How it was run: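 Normal human glucocerebrosidase (0.2 nM final) was assayed with resorufin β-D-glucopyranoside (30 uM final) in 50mM citric acid/KH2PO4, 10mM sodium taurocholate, 0.01% tween-20, pH 5.9. Compounds were titrated; fluorescence (Ex 548, Em 600) read after 20 min at RT.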
Potency means the concentration at half of the fitted maximal effect.

UniProt P04062, sequence (P04062 whole entry, looked up): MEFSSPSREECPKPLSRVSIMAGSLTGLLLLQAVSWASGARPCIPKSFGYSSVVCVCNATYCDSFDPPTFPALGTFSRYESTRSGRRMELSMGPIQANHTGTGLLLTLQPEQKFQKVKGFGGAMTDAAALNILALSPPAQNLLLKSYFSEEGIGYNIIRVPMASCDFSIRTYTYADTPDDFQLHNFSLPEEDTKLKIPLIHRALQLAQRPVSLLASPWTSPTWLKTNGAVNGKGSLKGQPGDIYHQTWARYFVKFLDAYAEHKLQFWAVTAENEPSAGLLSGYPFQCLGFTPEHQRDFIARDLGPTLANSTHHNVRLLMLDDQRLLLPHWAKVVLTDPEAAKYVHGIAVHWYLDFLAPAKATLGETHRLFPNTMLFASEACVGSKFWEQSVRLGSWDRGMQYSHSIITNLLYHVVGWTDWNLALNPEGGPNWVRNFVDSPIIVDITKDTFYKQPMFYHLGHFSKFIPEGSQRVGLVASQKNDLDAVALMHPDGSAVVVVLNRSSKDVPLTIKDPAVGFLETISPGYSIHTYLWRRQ

Potency, active:
CC(=O)N1CCC(C(=O)Nc2nc(-c3ccccc3)ns2)CC1 7.19 µM
CC1CN(S(=O)(=O)c2ccc(NC(=O)c3cc(-c4ccccc4O)n[nH]3)cc2)CC(C)O1 (configuration not stated) 7.64 µM
CCCCOc1ccc(OCCCC)c2c1NC1(N2)C(=O)N(C(C)=O)c2ccccc21 6.12 µM
Cc1nc2c(ccc3nc(NC(=O)c4ccc5c(c4)OCCO5)sc32)s1 7.38 µM

Potency, inactive:
CCOC(=O)C1=C(c2ccccc2)N(C)C(=O)NC1c1ccc(O)c(OC)c1 (configuration not stated) > 76.9 µM
CCOC(=O)c1cnc2c(C#N)c(C)nn2c1C > 76.9 µM
O=c1[nH]nc(Cc2ccccn2)c2ccccc12 > 76.9 µM
O=C(c1ccc(N2CCOCC2)nc1)N1CCOCC1 > 76.9 µM
Cc1ccc(-c2noc(CN(C(=O)CCCCCN3C(=O)c4ccccc4C3=O)C(C)C)n2)cc1 > 76.9 µM
COCCNC(=O)C(c1cccc(OC)c1)N(C(=O)Cn1nnc2ccccc21)c1cccnc1 (configuration not stated) > 76.9 µM
N#Cc1c(/N=C/c2ccco2)sc2c1CCCCC2 > 76.9 µM
COc1ccc(C(C)=O)cc1CSc1nc2ccccc2o1 > 76.9 µM
Cc1ccc(-n2ncc3c(=O)[nH]c(SCC(=O)N4CCN(c5ccccc5)CC4)nc32)cc1 > 76.9 µM
O=C(COC(=O)c1cccs1)c1ccc2c(c1)OCCO2 > 76.9 µM
CC(=O)N1CCc2cc(NC(=O)c3ccc(C)cc3)ccc21 > 76.9 µM
CCc1nnc(NC(=O)OCc2ccccc2)s1 > 76.9 µM
CCN(CC)S(=O)(=O)c1cccc(C(=O)Nc2nc3cc4c(cc3s2)OCCO4)c1 > 76.9 µM
COc1ccc(C(=O)/C=C/Nc2cc(C)on2)c(OC)c1 > 76.9 µM
COc1ccc2cc(C3(C)NC(=O)N(CC(=O)NCc4ccco4)C3=O)ccc2c1 (configuration not stated) > 76.9 µM
Cc1ccc(S(=O)(=O)N2CCC(C(=O)N[C@@H](C)C(=O)Nc3ccc4c(c3)OCO4)CC2)cc1 > 76.9 µM
O=C(Nc1nc2c(s1)CCCC2)c1cccs1 > 76.9 µM
O=C1COc2ccc(C(=O)COC(=O)c3ccc4ccccc4n3)cc2N1 > 76.9 µM
Cc1cc2c(cc(C(=O)OCC(=O)NCc3cccs3)n2C(C)C)o1 > 76.9 µM
COc1ccc(NC(=O)CN2CCC(NC(=O)C3CCCCC3)CC2)cc1 > 76.9 µM
CCCN(CCC)S(=O)(=O)c1cc(Br)cc2c1N(C(=O)CC)CC2 > 76.9 µM
Cc1c(NC(=O)c2cc3nc(-c4ccccc4)cc(C)n3n2)c(=O)n(-c2ccccc2)n1C > 76.9 µM
Cc1c(NC(=O)COc2ncnc3ccccc23)c(=O)n(-c2ccccc2)n1C > 76.9 µM
O=C(CCCCCn1c(=O)[nH]c2ccsc2c1=O)NCc1cccs1 > 76.9 µM
COc1ccc(C(=O)OCCN=C2NS(=O)(=O)c3ccccc32)cc1OC > 76.9 µM
COc1nc(-c2ccccc2)ccc1-c1noc(COc2ccccc2)n1 > 76.9 µM
O=C1CCCC2=C1C1(CCCCC1)N=C(Nc1nc3ccccc3o1)N2 > 76.9 µM
CCCCCn1c(SCC#N)nc2cc(C(=O)NC3CCCCC3)ccc2c1=O > 76.9 µM
O=C(NCC1CCCO1)c1cc(-c2ccccc2)on1 (configuration not stated) > 76.9 µM

Potency, inconclusive:
COc1ccccc1CCn1cnc2c3cc(C)ccc3n(C)c2c1=O 32 µM [increasing]
CCc1c(C)nc2c(C#N)c[nH]n2c1=O 18 µM [decreasing]
Cc1cc(NC(=O)c2cncc(Br)c2)n(-c2ccccn2)n1 20.7 µM [increasing]
Cc1cc(C)n(-c2cc(N3CCOCC3)nc(-c3ccccc3)n2)n1 29.2 µM [increasing]
O=C(COC(=O)c1cccc(S(=O)(=O)N2CCc3ccccc3C2)c1)NCc1ccco1 24.7 µM [decreasing]
COC(=O)C(Cc1ccc(O)cc1)NC(=O)C(C)Oc1ccccc1 (configuration not stated) 24.7 µM [decreasing]
O=C(NCCN1CCOCC1)Nc1ccc(Cl)cc1Cl 18.7 µM [decreasing]
CC(C)OC(=O)C(C#N)c1nc2ccccc2nc1N1CCN(Cc2ccccc2)CC1 (configuration not stated) 17.2 µM [decreasing]
COc1ccc(C(=O)O)cc1NS(=O)(=O)c1cccc2nsnc12 30 µM [decreasing]
Cn1c(=O)[nH]c(=O)c2c1nc(SCC(=O)O)n2CCc1ccccc1 28.8 µM [decreasing]
c1ccc(Cn2nnnc2C(c2ccccc2)N2CCN(c3nc4ccccc4s3)CC2)cc1 (configuration not stated) 22 µM [decreasing]
CCCCc1ccc(NC(=O)C2CCN(S(C)(=O)=O)CC2)cc1 15.6 µM [decreasing]
CCOc1ccc(-c2nc(CSCC(=O)NCCN3CCOCC3)c(C)o2)cc1 20.1 µM [decreasing]
CCNc1nc(NC(C)(C)C)nc(SC(C(C)=O)C(C)=O)n1 15.9 µM [decreasing]
CCOC(=O)Cn1c(=N)n(CCOc2cccc(C)c2)c2ccccc21 22.9 µM [decreasing]
Cc1noc(C)c1COc1cccc(C(=O)Nc2ccc(C#N)cc2)c1 26.1 µM [decreasing]
CCSC1(SCC)N=C(N)C2(C#N)C(c3ccc(OC)c(OC)c3OC)C12C#N (configuration not stated) 16.8 µM [decreasing]
COc1cc(C(=O)N(CCc2ccccc2)C2CC3CCC(C2)N3C)cc(OC)c1OC (configuration not stated) 17.3 µM [decreasing]
O=S(=O)(Nc1nc2ccccc2nc1N1CCN(c2ccccn2)CC1)c1ccc(Cl)cc1 28.3 µM [decreasing]
Cc1ccc(S(=O)(=O)N2CCC(C(=O)Nc3ccc4c(c3)COC4=O)CC2)cc1 17.5 µM [decreasing]
O=C(Nc1ccc2c(c1)OCCO2)C1CCN(S(=O)(=O)c2cccs2)CC1 21.2 µM [decreasing]
O=C(C1CCC(CNc2nc(=S)[nH]c3ccccc23)CC1)N1CCN(c2ccccn2)CC1 (configuration not stated) 28.4 µM [decreasing]
CCOc1ccc2[nH]c(=O)c(CN(Cc3cccs3)C(CC)c3nnnn3C(C)(C)CC)cc2c1 (configuration not stated) 16.2 µM [decreasing]
O=C(CN1CCN(Cc2ccccc2Cl)C1=O)NC1CCCCCC1 28.8 µM [decreasing]
CC(=O)Oc1cc2c(C(=O)NCCCN3CCOCC3)c(C)oc2c2ccccc12 16.2 µM [decreasing]
O=S(=O)(c1cccc(C(F)(F)F)c1)N1CCC(O)(c2cccnc2)CC1 20.1 µM [decreasing]
CC(COc1cccc2ccccc12)CN1CCN(C)CC1 (configuration not stated) 23.6 µM [decreasing]
COc1ccc(S(=O)(=O)NCCSCc2ccco2)cc1 27.8 µM [decreasing]
O=C(OCc1ccccc1Cl)c1ccc(-n2cnnc2)cc1 24.5 µM [decreasing]
CC(C)C(=O)Nc1cccc(C(=O)NCCc2ccc(S(N)(=O)=O)cc2)c1 16.1 µM [decreasing]
CC(=O)Nc1ccc(S(=O)(=O)N2CCC(c3nc4ccc(C)cc4[nH]3)CC2)cc1 17.6 µM [decreasing]
COc1ccc(N2CCN(Cc3cc(=O)oc4cc(C)c(Cl)c(C)c34)CC2)cc1 28.2 µM [decreasing]
O=C(CN1CCCCC1)Nc1ccc(S(=O)(=O)N2CCCCCC2)cc1 17.7 µM [decreasing]
O=C(COc1cccc(OC(F)F)c1)Nc1ccc(SC(F)F)cc1 21.2 µM [decreasing]
O=C(CCC(=O)Nc1ccc(Oc2ccccc2)cc1)NCCO 16.3 µM [decreasing]
COc1ccc(CN(C2CCCC2)S(=O)(=O)c2ccc(-n3cnnn3)cc2)cc1 16.3 µM [decreasing]
Cc1[nH]c2ccccc2c1C(=O)CN1CCCC1 19.1 µM [decreasing]
CCOC(=O)c1cc(C(C)(C)C)oc1CN 17.4 µM [decreasing]
CCOC(=O)CSc1nc2c(sc(=S)n2Cc2ccco2)c(=O)n1-c1ccccc1 31.4 µM [decreasing]
CCOc1cc(S(=O)(=O)NCc2ccccc2)ccc1F 31.7 µM [decreasing]
Cc1ccc(C2c3c(-c4ccccc4O)n[nH]c3C(=O)N2Cc2ccncc2)cc1 (configuration not stated) 26.2 µM [decreasing]
Cn1c(CCN2CCCCC2)nc2cc(NC(=O)Nc3ccccc3)ccc21 18.1 µM [decreasing]
COC(=O)c1ccc(CSc2nc3c(c(=O)n2-c2ccc(F)cc2)SCC3)o1 17.2 µM [decreasing]
CCc1nc(Nc2ccc(N3CCN(C(C)=O)CC3)cc2)c2oc3ccccc3c2n1 17.6 µM [decreasing]
